± gives the standard error. Variants at the background level are over-represented here.
B1: glmS ribozyme (parent)
chain: AUAAAAGCGCCAGAACUACAGAAAUGUAGUUGACGAGGAGGAGGUUUAUCGAAUUUUCGGCGGAUGCCUCCAAA

Key:
Conditions in all cases: with glucosamine-6-phosphate
glucosamine-6-phosphate [1] = variants of: B1; assay: self-cleavage kobs at 40 uM GlcN6P; higher = faster cleavage; RNA array
Method in brief: (§1)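 Sequenced MiSeq chips were the platform: E. coli RNA polymerase transcribed barcoded ribozyme variants on them in situ, and a hybridised Cy3 probe tracked these at 37 °C. After glucosamine-6-phosphate (40 μM to 10 mM) in HEPES/KCl/Mg(OAc)2 buffer was flowed in, tiles were imaged over ~14 h. Signals normalised to baseline and to non-cleaving reference variants were reduced to per-tile medians and fit to one- or two-exponential decays to obtain kobs. kcat and KM were derived through weighted Michaelis–Menten fits across concentrations.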

glucosamine-6-phosphate [2] = variants of: B1; assay: self-cleavage kobs at 160 uM GlcN6P; higher = faster cleavage; RNA array
Method in brief: as §1

glucosamine-6-phosphate [3] = variants of: B1; assay: self-cleavage kobs at 10000 uM GlcN6P; higher = faster cleavage; RNA array
Method in brief: as §1

glucosamine-6-phosphate [4] = variants of: B1; assay: self-cleavage kobs at 2500 uM GlcN6P; higher = faster cleavage; RNA array
Method in brief: as §1

glucosamine-6-phosphate [5] = variants of: B1; assay: self-cleavage kobs at 640 uM GlcN6P; higher = faster cleavage; RNA array
Method in brief: as §1

Variant	self-cleavage kobs at 40 uM GlcN6P (glucosamine-6-phosphate [1]) [s⁻¹]	self-cleavage kobs at 160 uM GlcN6P (glucosamine-6-phosphate [2]) [s⁻¹]	self-cleavage kobs at 10000 uM GlcN6P (glucosamine-6-phosphate [3]) [s⁻¹]	self-cleavage kobs at 2500 uM GlcN6P (glucosamine-6-phosphate [4]) [s⁻¹]	self-cleavage kobs at 640 uM GlcN6P (glucosamine-6-phosphate [5]) [s⁻¹]
AUAAAAGCGCCAGAACUACAGAAAUGUAGUUCACGAGGAGGAGGUUUGUCGAAUUUUCGGCGGAUGCCUCCAAA [G32C A48G]	< 1e-05	< 1e-05	< 1e-05		
AUAAAAGCGCCAGAACUACAGAAAUGUAGUUCACGAGGAGGAGGUUUAUCGAUUUUUCGGCGGAUGCCUCCAAA [G32C A53U]	< 1e-05	< 1e-05	5.79e-05 ± 5e-06	2.59e-05 ± 6.8e-06	
AUAAAAGCGCCAGAACUACAGAAAUGUAGUUAACGAGGAGGAUGUUUAUCGAAUUUUCGGCGGAUGCCUCCAAA [G32A G43U]	< 1e-05			< 1e-05	< 1e-05
AUAAAAGCGCCAGAACUACAGAAAUGUAGUUCACGAGUAGGAGGUUUAUCGAAUUUUCGGCGGAUGCCUCCAAA [G32C G38U]	< 1e-05	< 1e-05	< 1e-05		< 1e-05
AUAAAAGCGCCAGAACUACAGAAAUGUAGUUUACUAGGAGGAGGUUUAUCGAAUUUUGGGCGGAUGCCUCCAAA [G32U G35U C58G]	< 1e-05		< 1e-05		
AUAAAAGCGCCAGAACUACAGAAAUGUAGUUAACGAGGAGGAGGUUUAUCGAAUUUUCCGCGGAUGCCUCCAAA [G32A G59C]	< 1e-05	< 1e-05		< 1e-05	< 1e-05
AUAAAAGCGCCAGAACUACAGAAAUGUAGUUGCCGAGGAGGAGGUUUAUCGAAUUUUCGGCGGAUGCCUCUAAA [A33C C71U]	< 1e-05	< 1e-05	4.08e-05 ± 1e-05		
AUAAAAGCGCCAGAACUACAGAAAUGUAGUUUACGAGGAGGAGGUUUAUCGAAUUUUCGGCCGAUGCCUCCAAA [G32U G62C]	< 1e-05	< 1e-05		< 1e-05	< 1e-05
AUAAAAGCGCCAGAACUACAGAAAUGUAGUUGCCGAGGAGGAGGUUUAUCGAAUUUUCGGCGGAUGCAUCCAAA [A33C C68A]	< 1e-05				
AUAAAAGCGCCAGAACUACAGAAAUGUAGUUUCCGAGGAGGAGGUUUAUCGAAUUUUCAGCGGAUGCCUCCAAA [G32U A33C G59A]	< 1e-05		< 1e-05		
AUAAAAGCGCCAGAACUACAGAAAUGUAGUUUACGAGGAGGAGGUUUAUCGCAUUUUCGGCGGAUGCCUCCAAA [G32U A52C]	< 1e-05				
AUAAAAGCGCCAGAACUACAGAAAUGUAGUUUACGAGGAGGAGGUUUAUCGAAUUUUCGGCGGUUGCUUCCAAA [G32U A64U C68U]	< 1e-05		< 1e-05		
AUAAAAGCGCCAGAACUACAGAAAUGUAGUUGCCGAGGAGGAGGUUUAUCGAAUUUUCGGCGUAUGUCUCCAAA [A33C G63U C67U]	< 1e-05				
AUAAAAGCGCCAGAACUACAGAAAUGUAGUUCACGAGGAGGAGGUUUAUCCAAUUUUCUGCGGAUGCCUCUAAA [G32C G51C G59U C71U]	< 1e-05		< 1e-05		
AUAAAAGCGCCAGAACUACAGAAAUGUAGUUCACGAUGAGGAGGUUUAUCGAAUUUUCGGCGGAUGCCUCCAAA [G32C G37U]	< 1e-05				< 1e-05
AUAAAAGCGCCAGAACUACAGAAAUGUAGUUCACGAGGAGGAGGUUUAUCGAAUUUUUGGCGGAUGCCUCCAAA [G32C C58U]	< 1e-05	< 1e-05			

Variant	self-cleavage kobs at 40 uM GlcN6P (glucosamine-6-phosphate [1]) [s⁻¹]	self-cleavage kobs at 160 uM GlcN6P (glucosamine-6-phosphate [2]) [s⁻¹]	self-cleavage kobs at 10000 uM GlcN6P (glucosamine-6-phosphate [3]) [s⁻¹]	self-cleavage kobs at 2500 uM GlcN6P (glucosamine-6-phosphate [4]) [s⁻¹]	self-cleavage kobs at 640 uM GlcN6P (glucosamine-6-phosphate [5]) [s⁻¹]
AUAAAAGCGCCAGAACUACAGAAAUGUAGUUGCCGAGGAUGAGGUUUAUCGAAUUUUCGGCGGAUGCCUCCAAA [A33C G40U]	< 1e-05	< 1e-05		< 1e-05	< 1e-05
AUAAAAGCGCCAGAACUACAGAAAUGUAGUUGCCGAGGAGGAGGUUUAUCCAAUUUUCGGCGGAUGCCUCCAAA [A33C G51C]	< 1e-05	< 1e-05		< 1e-05	< 1e-05
AUAAAAGCGCCAGAACUACAGAAAUGUAGUUCACGCCGAGGAGGUUUAUCGAAUUUUCGGCGGAUGCCUCCAAA [G32C A36C G37C]	< 1e-05				
AUAAAAGCGCCAGAACUACAGAAAUGUAGUUUACGAGGAGGAGGUAUAUCGAAUUUUCGGCGGAUGCCUCCAAA [G32U U46A]	< 1e-05				
AUAAAAGCGCCAGAACUACAGAAAUGUAGUUGCCGGGGAGGAGGUUUAUCGAAUUUUCGGCUGAUACCUCCAAA [A33C A36G G62U G66A]	< 1e-05			< 1e-05	< 1e-05
AUAAAAGCGCCAGAACUACAGAAAUGUAGUUGCCGAGGAGGAGGUUCAUCGAAUUUUCGGCGGAUGCCUCCAAA [A33C U47C]	< 1e-05				
AUAAAAGCGCCAGAACUACAGAAAUGUAGUUGCCGAGGAGGAGGUUGAUCGAAUUUUCGGCGGAUGCCUCCAAA [A33C U47G]	< 1e-05	< 1e-05			
AUAAAAGCGCCAGAACUACAGAAAUGUAGUUGCCGAGGAGGAGGUUUAUCGAAUUUUCGGCGGUUGCCUCCAAA [A33C A64U]	< 1e-05	< 1e-05		< 1e-05	< 1e-05
AUAAAAGCGCCAGAACUACAGAAAUGUAGUUCACGAGGAGGAGGUUUAUCGAAUUUUCGGCGGACGCCUCCAAA [G32C U65C]	< 1e-05	< 1e-05	< 1e-05	< 1e-05	< 1e-05
AUAAAAGCGCCAGAACUACAGAAAUGUAGUUUAUGAGGAGGAGGUUUAUCGAAUUUUCGGCGGAUGCCUCCAAA [G32U C34U]	< 1e-05				
AUAAAAGCGCCAGAACUACAGAAAUGUAGUUCACGAGGAGAAGGUUUAUCGAAUUUUCGGCGGAUGCCUCCAAA [G32C G41A]	< 1e-05	< 1e-05			< 1e-05
AUAAAAGCGCCAGAACUACAGAAAUGUAGUUAACGAGGAGGAGGUUUAGCGAAUUUUCGGCGGAUGCAUCCAAA [G32A U49G C68A]	< 1e-05				
AUAAAAGCGCCAGAACUACAGAAAUGUAGUUUAAGAGGAGGAGGUUUAUCCAAUUUUCGGCGGAUGCCUCCAAA [G32U C34A G51C]	< 1e-05	< 1e-05			
AUAAAAGCGCCAGAACUACAGAAAUGUAGUUAACGAGGAGGAGGUUUAUCGAAUUUUCGGCGGACGCCUCCAAA [G32A U65C]	< 1e-05				
AUAAAAGCGCCAGAACUACAGAAAUGUAGUUGCCGAGGAAGAGGUUUAUCGAAUUUUCGGCGGAUGGCUCCAAA [A33C G40A C67G]	< 1e-05				
AUAAAAGCGCCAGAACUACAGAAAUGUAGUUGCCGAGCAGGAGGUUUAUCGAAUUUUCGGCGGAUGCCUCCAAA [A33C G38C]	< 1e-05				
